These results are taken from the antibiotic and cytotoxicity screens of Wong et al. (2023).

One assay concerns HSkMC. The assay is described as follows: cytotoxicity call (relative viability < 0.9). Particulars: 10 µM.
Another assay deals with S. aureus RN4220. The assay is described as follows: growth inhibition call (relative growth <= 0.2). Particulars: 50 µM.

Structures are written as SMILES. Some of the results follow.

Regarding `Cc1cc(SCc2ccc(F)cc2)c(C)cc1Cl`, the cytotoxicity call with HSkMC was “inactive”. For the same molecule, the growth inhibition call in the assay on S. aureus RN4220 is “inactive”.

Take `C[C@@H]1CN([C@@H](C)CO)C(=O)c2cccc(NC(=O)Nc3ccc(F)cc3)c2O[C@@H]1CN(C)C(=O)Nc1cccc2ccccc12`: in the assay with HSkMC, the cytotoxicity call was “inactive”. Moreover, the growth inhibition call in the assay with S. aureus RN4220 was “inactive”.

Turning to `C[C@H](CO)N1C[C@H](C)[C@H](CN(C)C(=O)CN(C)C)Oc2cc(C#CCN(C)C)ccc2S1(=O)=O`, the cytotoxicity call with HSkMC is “inactive”. Also, the growth inhibition call in the assay with S. aureus RN4220 is “inactive”.

With `C[C@H](CO)N1C[C@H](C)[C@@H](CN(C)C(=O)Nc2ccc(C(F)(F)F)cc2)Oc2ccc(NC(=O)Nc3cccc4ccccc34)cc2CC1=O`, the cytotoxicity call with HSkMC was “inactive”. Further, the growth inhibition call in the assay on S. aureus RN4220 is “inactive”.

Take `C[C@H]1CN([C@@H](C)CO)C(=O)c2cccc(NS(=O)(=O)c3cn(C)cn3)c2O[C@@H]1CN(C)Cc1ccc(C(=O)O)cc1`: the cytotoxicity call in the assay on HSkMC was “inactive”. For the same molecule, the growth inhibition call in the assay on S. aureus RN4220 is “inactive”.

As to `C[C@@H]1CCCCO[C@@H](CN(C)Cc2ccc(C(F)(F)F)cc2)[C@H](C)CN([C@H](C)CO)C(=O)c2cc(N(C)C)ccc2O1`, the cytotoxicity call in the assay with HSkMC is “inactive”. In addition, in the assay with S. aureus RN4220, the growth inhibition call is “inactive”.

Turning to `C[C@@]1(O)N(CC(=O)O)C(=O)OC12CCCCC2`, in the assay on HSkMC, the cytotoxicity call was “inactive”. For the same molecule, in the assay on S. aureus RN4220, the growth inhibition call was “inactive”.

Consider `C[C@@H]1CN([C@H](C)CO)C(=O)c2cccc(NC(=O)C3CCCCC3)c2O[C@@H]1CN(C)Cc1ccc(Oc2ccccc2)cc1`, for which, in the assay with HSkMC, the cytotoxicity call is “inactive”. Besides, the growth inhibition call with S. aureus RN4220 is “inactive”.

As to `O=C1CN(S(=O)(=O)Cc2ccccc2)C[C@@H]2[C@@H](c3ccc(C#Cc4cccc(F)c4)cc3)[C@H](CO)N12`, the cytotoxicity call in the assay with HSkMC was “active”. Besides, the growth inhibition call with S. aureus RN4220 was “inactive”.

Consider `CCCN(C)C[C@H]1OCCCC[C@@H](C)Oc2ccc(NC(=O)Nc3c(C)noc3C)cc2C(=O)N([C@H](C)CO)C[C@@H]1C`, for which the cytotoxicity call in the assay on HSkMC is “inactive”. Besides, the growth inhibition call in the assay with S. aureus RN4220 was “inactive”.

`Cc1ccnc(-n2c(C)ccc2C)c1`: the cytotoxicity call with HSkMC is “inactive”. Also, the growth inhibition call in the assay with S. aureus RN4220 was “inactive”.

Take `O=C(C1CC1)N1CCN(c2ncccn2)CC1`: the cytotoxicity call in the assay with HSkMC was “inactive”. In addition, the growth inhibition call with S. aureus RN4220 is “inactive”.

As for `C[C@@H]1CCCCO[C@H](CN(C)Cc2ccc(Cl)c(Cl)c2)[C@H](C)CN([C@@H](C)CO)C(=O)c2cc(NC(=O)NC3CCCCC3)ccc2O1`, the cytotoxicity call in the assay on HSkMC is “inactive”. In addition, the growth inhibition call in the assay with S. aureus RN4220 is “inactive”.

Regarding `C[C@@H]1CN([C@@H](C)CO)C(=O)CCCn2nncc2CO[C@H]1CN(C)C(=O)Nc1ccc2c(c1)OCCO2`, the cytotoxicity call in the assay on HSkMC was “inactive”. The growth inhibition call in the assay with S. aureus RN4220 was “inactive”.

As for `Cn1cc(S(=O)(=O)Nc2ccc3c(c2)OCCO3)c(=O)n(C)c1=O`, the cytotoxicity call with HSkMC was “inactive”. For the same molecule, in the assay with S. aureus RN4220, the growth inhibition call was “inactive”.

With `Nc1c[nH]ccc1=O`, the cytotoxicity call in the assay on HSkMC is “inactive”. In addition, the growth inhibition call with S. aureus RN4220 was “inactive”.

Consider `C[C@@H]1CN([C@H](C)CO)C(=O)c2cc(NC(=O)Nc3ccc4c(c3)OCO4)ccc2O[C@@H](C)CCCCO[C@@H]1CN(C)S(=O)(=O)c1ccc(Cl)cc1`, for which the cytotoxicity call in the assay with HSkMC was “inactive”. Also, the growth inhibition call with S. aureus RN4220 is “inactive”.

With `CC(=O)N1CCC[C@H](C(=O)O)C1`, the cytotoxicity call with HSkMC was “inactive”. Also, the growth inhibition call with S. aureus RN4220 is “inactive”.

On to `O=C(C[C@@H]1C[C@H]2c3cc(NS(=O)(=O)c4ccccc4)ccc3O[C@H]2[C@H](CO)O1)NCC(F)(F)F`, for which, in the assay with HSkMC, the cytotoxicity call was “inactive”. Also, the growth inhibition call in the assay with S. aureus RN4220 was “inactive”.

In the case of `COc1ccccc1CNC(=O)C[C@@H]1CC[C@H]2[C@@H](COC[C@H](O)CN2C(=O)Nc2ccc(F)cc2)O1`, the cytotoxicity call with HSkMC was “inactive”. Besides, the growth inhibition call in the assay with S. aureus RN4220 was “inactive”.

As for `C[C@@H]1CCCCO[C@H](CN(C)S(=O)(=O)c2cccs2)[C@@H](C)CN([C@H](C)CO)C(=O)c2cc(NC(=O)Nc3ccc(F)cc3)ccc2O1`, the cytotoxicity call with HSkMC was “inactive”. Further, in the assay with S. aureus RN4220, the growth inhibition call is “inactive”.

With `COc1ccc(S(=O)(=O)Nc2ccc3c(c2)C(=O)N([C@H](C)CO)C[C@H](C)[C@@H](CN(C)C(=O)C2CCCCC2)OCCCC[C@H](C)O3)cc1`, the cytotoxicity call with HSkMC was “inactive”. Moreover, in the assay on S. aureus RN4220, the growth inhibition call is “inactive”.

Take `CO[C@H]1CN(C)C(=O)c2cc(NC(=O)NC3CCCCC3)ccc2OC[C@@H](C)N(CCc2ccccc2)C[C@@H]1C`: the cytotoxicity call with HSkMC was “active”. Further, in the assay on S. aureus RN4220, the growth inhibition call was “inactive”.

As for `Cc1ccc(S(=O)(=O)N(C)C[C@@H]2OCCCC[C@H](C)Oc3ccc(NC(=O)Nc4ccc(C(F)(F)F)cc4)cc3C(=O)N([C@H](C)CO)C[C@@H]2C)cc1`, the cytotoxicity call in the assay on HSkMC was “inactive”. Further, the growth inhibition call in the assay with S. aureus RN4220 is “inactive”.

In the case of `Cc1noc(C)c1NC(=O)N(C)C[C@@H]1Oc2ccc(NC(=O)c3ccncc3)cc2C(=O)N([C@H](C)CO)C[C@H]1C`, the cytotoxicity call in the assay on HSkMC is “inactive”. The growth inhibition call with S. aureus RN4220 is “inactive”.

Consider `Cn1cnc(S(=O)(=O)N2C[C@H](O)COC[C@H]3O[C@@H](CC(=O)NCc4cc(F)cc(F)c4)CC[C@@H]32)c1`, for which the cytotoxicity call in the assay on HSkMC is “inactive”. Besides, the growth inhibition call in the assay with S. aureus RN4220 is “inactive”.

Turning to `C[C@@H]1CN([C@@H](C)CO)C(=O)c2cccc(NS(=O)(=O)c3ccccc3)c2O[C@@H]1CN(C)Cc1ccc(Cl)c(Cl)c1`, the cytotoxicity call in the assay with HSkMC was “inactive”. Besides, the growth inhibition call in the assay on S. aureus RN4220 was “inactive”.

Consider `O=C(NCC(=O)N1CCOCC1)c1ccccc1`, for which, in the assay on HSkMC, the cytotoxicity call was “inactive”. In the assay on S. aureus RN4220, the growth inhibition call was “inactive”.

For `O=C1O[C@H](c2ccccc2)[C@H](c2ccccc2)N2[C@H]1[C@@H](C(=O)Nc1nc3ccccc3s1)[C@]1(C(=O)Nc3ccc(C#CCCO)cc31)[C@H]2c1ccc(OCCO)cc1`, the cytotoxicity call in the assay on HSkMC (human skeletal muscle cells) was “inactive”. The growth inhibition call with S. aureus RN4220 was “inactive”.

Consider `COc1ccc(S(=O)(=O)Nc2ccc3c(c2)C(=O)N([C@@H](C)CO)C[C@@H](C)[C@@H](CN(C)S(=O)(=O)c2cn(C)cn2)OCCCC[C@@H](C)O3)cc1`, for which, in the assay with HSkMC, the cytotoxicity call was “inactive”. Also, the growth inhibition call in the assay on S. aureus RN4220 is “inactive”.

As for `C[C@@H]1CN([C@H](C)CO)C(=O)Cc2cc(NS(=O)(=O)c3ccc(F)cc3)ccc2O[C@H]1CN(C)Cc1ccncc1`, the cytotoxicity call with HSkMC was “inactive”. Besides, the growth inhibition call with S. aureus RN4220 is “inactive”.
